IFI data for 101 molecules are collected here from ChEMBL document CHEMBL1156829.

Over roughly 5,400 compounds, “IFI” has its median near 2; the highest 2% begin near 22. Some of the results follow.

The assay is described as follows: NOVARTIS: Inhibition Frequency Index (IFI) - the number of HTS assays where a compound showed > 50% inhibition/induction, expressed as a percentage of the number of assays in which the compound was tested. The format is functional.
`Cc1ccc(CNC(=O)c2cc3sc(Cl)cc3n2C)cc1` gave an IFI of 0%.

In turn, `Cc1cccc(NC(=O)N2CCN(C(=O)c3nc(-c4ccccc4)nc(C)c3C(=O)OC(C)C)CC2C)c1C` (stereo unspecified) came in with an IFI of 1.87%.

For the molecule `O=C(NC1CC1)c1ccc(OC2CCN(CC3CCCCC3)CC2)c(Cl)c1`, the IFI stood at 2.78%.

Regarding `O=C(NN=Cc1c(O)ccc2ccccc12)c1cccnc1`, the IFI worked out at 14.7%.

In the case of `Cc1cccc(CCNc2cc(C)nc3ncnn23)c1`, the IFI was determined as 0%.

The molecule `CC12C(=O)N(c3cccc(C(=O)O)c3)C(=O)C1C1c3ccccc3C2c2ccccc21` (stereo unspecified) showed an IFI of 0%.

On to `Clc1ccc2[nH]c3c(NCCC4=CCCCC4)ncnc3c2c1`, for which the IFI came out at 15%.

In the case of `Cc1ccn2c(NC(C)(C)CC(C)(C)C)c(-c3ccccc3OC(=O)C(c3ccccc3)c3ccccc3)nc2c1`, the IFI stood at 2.15%.

Molecule `O=C(Nc1ccc(-c2nc3cc(NC(=O)c4ccc(Br)o4)ccc3[nH]2)cc1)c1ccc(Br)o1` returned an IFI of 7.69%.

`CCCCN(C)C(=O)c1sc2ncn(CC(=O)N(CC)CC)c(=O)c2c1C` registered an IFI of 0%.

Molecule `CCn1c(SCc2ccc(Cl)cc2Cl)nc2sc3c(c2c1=O)CCN(C)C3` registered an IFI of 11.8%.

Molecule `COC(=O)CSc1nnc2c(n1)[nH]c1c(OC)ccc(Cl)c12` returned an IFI of 3.19%.

`CCCCN(CCCC)c1nc(=O)cc(-c2ccc(Cl)cc2)o1` displayed an IFI of 0%.

As to `COc1ccc(NC(=O)NCc2cccn2Cc2ccc(F)cc2)cc1OC`, the IFI came out at 0%.

Consider `CCNc1ncnc2sc(C(=O)NCc3csc(C)n3)c(C)c12`, for which the IFI was 0%.

Consider `O=C(Nc1ccc(-c2cn3ccsc3n2)cc1)c1ccc(S(=O)(=O)N2CCCCCC2)cc1`, for which the IFI was determined as 3.12%.

Take `O=C(O)c1ccc([C@@H]2Nc3c(ccc4ccccc34)[C@@H]3C=CC[C@@H]32)cc1`: the IFI stood at 5.88%.

Consider `CC(=O)N(C1=C(N2CCCC2)C(=O)c2ccccc2C1=O)c1ccc(I)cc1`, for which the IFI is 1.33%.

As for `C=CCC1C=C(Cc2ccccc2)CC(CC=C)N1` (stereo unspecified), the IFI is 3.92%.

For `CN(c1ncnc2sc3c(c12)CCCC3)C1CCCCC1`, the IFI was determined as 1.18%.

`CCOc1cc(C=NN=C(N)N)ccc1OCc1ccccc1` yielded an IFI of 2.24%.

As to `CCc1cc2c(NCCN3CCCCC3)ncnc2s1`, the IFI stood at 0%.

In the case of `CC(C)(C)CC(C)(C)Nc1c(-c2ccccc2OC(=O)c2ccccc2F)nc2ccccn12`, the IFI stood at 2.83%.

The molecule `COc1ccc(CCNc2nc(NCCCn3ccnc3)ncc2C(=O)NCc2ccccc2)cc1OC` gave an IFI of 0.952%.

With `CC(=O)Nc1ccc(NC2=C(N3CCCCC3)C(=O)c3ccccc3C2=O)cc1`, the IFI came to 0%.

Regarding `CC(=O)N(Cc1ccc(F)cc1)C1=C(NCCc2ccccc2)C(=O)c2ccccc2C1=O`, the IFI was 8.33%.

For the molecule `OCCCNc1cc(-c2ccccn2)nc(-c2ccccn2)n1`, the IFI came to 15.4%.

Consider `CN=C1S/C(=C\c2ccc(OCC(=O)O)c(OC)c2)C(=O)N1C`, for which the IFI worked out at 0%.

With `CC(C)CNC(=O)c1cnc(NCCCn2ccnc2)nc1NCC(C)C`, the IFI was 0.98%.

`Cc1ccc(C(=O)CSc2nc(N)c(C#N)c(-c3cccs3)c2C#N)cc1`: the IFI came to 7.14%.

`Cc1cc(Nc2cccc([N+](=O)[O-])c2)nc2cc(O)ccc12` registered an IFI of 0%.

Regarding `COc1ccccc1/C=C\CN(C(=O)c1ccc(C)cc1)C(c1ccccc1)c1ccccc1`, the IFI turned out to be 2.2%.

Molecule `NC1(C(=O)O)CCc2cc(C(=O)O)ccc21` (stereo unspecified) came in with an IFI of 1.48%.

As to `O=[N+]([O-])c1ccc(N2CCCN(C(=S)Nc3ccccc3)CC2)nc1`, the IFI was found to be 1.67%.

As for `Fc1ccc(Nc2nc(NCc3ccccc3)c3ccccc3n2)cc1`, the IFI is 9.52%.

With `O=[N+]([O-])c1ccc(C=NNc2nc3ccccc3[nH]2)cc1`, the IFI came to 1.47%.

The molecule `Cc1ccc(-c2nnc(N3CCOCC3)c3ccccc23)cc1S(=O)(=O)N1CCN(C)CC1` returned an IFI of 0%.

As to `O=C(O)C(Cc1ccc([N+](=O)[O-])cc1)NS(=O)(=O)c1ccc(OC(F)(F)F)cc1` (stereo unspecified), the IFI turned out to be 0%.

Molecule `CCCCCCCC(=O)N(C)CCCNc1ccnc2cc(Cl)ccc12` showed an IFI of 6.32%.

Consider `CC[n+]1c(/C=C/N2CCCc3ccccc32)ccc2ccccc21`, for which the IFI came out at 19.5%.

For `O=C(Nc1ccc(-c2nc3cc(NC(=O)c4ccc(Cl)cc4)ccc3[nH]2)cc1)c1ccc(Cl)cc1`, the IFI worked out at 0%.

As to `CCCN(CCC)C(=O)c1c[nH]c2ccc(S(=O)(=O)N(C)c3ccc(F)cc3)cc2c1=O`, the IFI came to 0%.

Turning to `CCOc1ccc2[nH]c(=O)c(CN(CCN(CC)CC)C(=S)NCCCN(CC)CC)cc2c1`, the IFI came to 4.63%.

As for `CCOC(=O)N1CCN(C(=O)c2cnc3ccc(C)cn3c2=O)CC1`, the IFI turned out to be 0%.

Consider `Cc1cccc2cc(CNC3CCOC(C)(C)C3)c(N3CCCC3)nc12` (stereo unspecified), for which the IFI stood at 1.72%.

Molecule `Cc1cccc2c1[nH]c1nc(SCC(C)C)nnc12` had an IFI of 10.7%.

On to `O=C1CC(=O)Nc2cc(S(=O)(=O)NC3CCCCCCC3)ccc2N1`, for which the IFI was 0%.

`COCCNc1cc(-c2ccccn2)nc(-c2ccccn2)n1` returned an IFI of 15.4%.

`COc1cccc(C(=O)C[n+]2cc(-c3ccc(Cl)cc3)n3c2CCC3)c1` yielded an IFI of 2.44%.

With `Cn1nc(C(=O)Nc2ccc(F)c(Cl)c2)c2c1-c1ccccc1S(=O)(=O)C2`, the IFI worked out at 0%.

Regarding `Cc1cc2c(cc1S(=O)(=O)N1CCCCC1C)OCC(=O)N2` (stereo unspecified), the IFI came out at 0%.

As to `CCOC(=O)c1c(C)[nH]c(C)c1S(=O)(=O)N1CCCC(C(=O)N2CCN(c3cccc(C)c3C)CC2)C1` (stereo unspecified), the IFI turned out to be 0%.

Regarding `CCOc1ccc(C(=O)C(CCC(C[N+]2(C)CCCCCC2)C(=O)c2ccc(OCC)cc2)C[N+]2(C)CCCCCC2)cc1` (stereo unspecified), the IFI came to 0%.

The molecule `C=CC1(C)CC23CC(C(OC(=O)c4ccccc4)c4ccnc5ccccc45)N2CCC13` (stereo unspecified) registered an IFI of 3.64%.

Take `CCOC(=O)c1cnc2c(C)cc(C)cc2c1Nc1ccc(C(C)=O)cc1`: the IFI worked out at 0%.

In the case of `CCOC(=O)c1cccc(NC(=O)CCn2c(-c3ccc(F)cc3)cc(C(=O)OCC)c2C)c1`, the IFI worked out at 0%.

Take `CCN1CC=C2C(C#N)=C(N)C(C#N)(C#N)[C@H](c3ccc(C)s3)[C@H]2C1`: the IFI was 3.28%.

In turn, `Cc1ccccc1C(=O)NCCCCNc1ccnc2cc(Cl)ccc12` registered an IFI of 2.8%.

`COC(=O)C1=C(C)NC2=C(C(=O)CC(c3ccc(OC)c(OC)c3)C2)C1c1ccccc1C` (stereo unspecified) gave an IFI of 4.65%.

Take `O=C(NCc1ccccc1)c1cnc(NCCCN2CCCC2)nc1NCC1CCCCC1`: the IFI came to 0.971%.

The molecule `CN(C)c1ccc(NC(=O)c2cccnc2C(=O)O)cc1` gave an IFI of 6.02%.

In turn, `COc1cccc(OC)c1C(=O)NCCCCNc1ccnc2cc(Cl)ccc12` came in with an IFI of 0.935%.

For the molecule `N=c1c2ccccc2nnn1-c1ccc(C(F)(F)F)cc1`, the IFI was found to be 2.53%.

`Oc1c2c(nc3cc(-c4ccc(Br)cc4)nn13)CCCC2` had an IFI of 9.52%.

Consider `Cn1c(COc2ccc(Cl)cc2Cl)[n+](C)c2ccccc21`, for which the IFI came to 0%.

As to `CN(C)c1ccc(C=NNc2ncnc3nc[nH]c23)cc1`, the IFI worked out at 0%.

`Cc1ccc(NC(=O)COc2ccc(Cl)cc2Cl)nc1` gave an IFI of 8.33%.

The molecule `Cc1ccn(CC(=O)N2CCOc3c(cc(-c4csc5ccccc45)cc3OCCc3ccccn3)C2)n1` returned an IFI of 4%.

The molecule `C/C=C(\Cl)C1=CC(=O)[C@]23C[C@H]2[C@@]2(C)CO[C@@]1(O)[C@@]3(O)O2` displayed an IFI of 6.86%.

As to `CC(=O)N1CCN(C(=O)CCCSc2nnc(-c3ccc(C)cc3)n2-c2cccc(C)c2)CC1C` (stereo unspecified), the IFI stood at 2.75%.

Molecule `CSc1nc2nc(C)c(Cc3cccc(C(F)(F)F)c3)c(C)n2n1` gave an IFI of 1.25%.

Molecule `COC(=O)c1sc2nc(CN3CCC(C)CC3)ccc2c1NC(=O)c1ccc(C)s1` yielded an IFI of 1.74%.

For the molecule `c1ccc(-c2cc(N3CCN(c4ccccn4)CC3)nc(-c3ccccn3)n2)nc1`, the IFI came to 15.4%.

The molecule `O=C1CC(c2cccc([N+](=O)[O-])c2)c2cc3c(cc2N1)OCO3` (stereo unspecified) registered an IFI of 4%.

In turn, `COc1cccc(NC(=O)c2ccc(NCCCN3CCC(C)CC3)c([N+](=O)[O-])c2)c1` had an IFI of 0%.

The molecule `CCN1CCN(Cc2c(O)ccc3c(=O)c(Oc4cc(C)cc(C)c4)c(C(F)(F)F)oc23)CC1` returned an IFI of 3.49%.

Consider `Cc1ccc(C(=O)N(C)CCCNc2ccnc3cc(Cl)ccc23)cc1`, for which the IFI worked out at 1.87%.

Molecule `CCC1=NN2C(=N)/C(=C/c3cn(CCOc4ccccc4C(C)CC)c4ccccc34)C(=O)N=C2S1` (stereo unspecified) showed an IFI of 0%.

In the case of `c1ccc(OCCOc2ccc(Nc3ccnc4cc5ccccc5cc34)cc2)cc1`, the IFI was 6.15%.

The molecule `CCCCOc1ccc(N(C(C)=O)C2=C(N3CCCCC3)C(=O)c3ccccc3C2=O)cc1` displayed an IFI of 6.76%.

Turning to `CCN(CC)Cc1cc(Nc2ccnc3cc(Cl)ccc23)ccc1O`, the IFI was determined as 2.59%.

On to `N#Cc1c(N)nc2sc(C(=O)c3ccc(F)cc3)c(N)c2c1-c1ccccc1`, for which the IFI was 4.17%.

`CCOC(=O)C1=C(C)NC2=C(C(=O)CC(c3ccc(Cl)cc3)C2)C1c1ccccc1Cl` (stereo unspecified): the IFI was determined as 3.23%.

As for `CN(C)CC(O)Cn1c2ccccc2c2ccccc21` (stereo unspecified), the IFI worked out at 3.82%.

As for `Cc1c(C(=O)N2CCN(c3cccc(Cl)c3)CC2)sc2ncnc(N(C)c3ccccc3)c12`, the IFI turned out to be 3.49%.

Regarding `OC(CNC1CCCCC1)Cn1c2ccccc2c2ccccc21` (stereo unspecified), the IFI is 2.13%.

Take `CC(C)NC(=O)CN(C)C1c2ccccc2CCc2ccccc21`: the IFI is 4.59%.

Turning to `CN(C)CCN(C)Cc1cc(Br)cs1`, the IFI was found to be 5.83%.

In the case of `CCN(c1ccc(F)cc1)S(=O)(=O)c1ccc2[nH]cc(C(=O)NCCC(C)C)c(=O)c2c1`, the IFI was 0%.

Consider `CC(C)CCNC(=O)C1CSC(c2ccc(F)cc2)N1C(=O)c1ccc(Cl)cc1Cl` (stereo unspecified), for which the IFI was 3.23%.

In turn, `CC(C)CN(CC(=O)Nc1cc(C(C)(C)C)nn1-c1ccccc1)C(=O)COc1ccccc1` gave an IFI of 1.85%.

In the case of `NNC(=O)C1CCCN1S(=O)(=O)c1ccc(Cl)cc1` (stereo unspecified), the IFI is 1.05%.

As for `O=[N+]([O-])c1ccc(Nc2nc(NN=Cc3ccccc3I)nc(Nc3ccccc3)n2)cc1`, the IFI is 2.63%.

In the case of `N=C(N)NN=Cc1cc(Cl)ccc1O`, the IFI came out at 3.17%.

The molecule `CCN(CC)CCN1C(=O)c2ccc3c4c(ccc(c24)C1=O)C(=O)N(CCN(CC)CC)C3=O` registered an IFI of 15.2%.

In the case of `Cc1n(N)c2ccccc2[n+]1CC(=O)c1ccccc1`, the IFI came to 1.56%.

Molecule `O=C(Cn1c2ccccc2c(=O)c2cc([N+](=O)[O-])ccc21)Nc1ccc(F)c(Cl)c1` registered an IFI of 2.41%.

`CC[n+]1cccc2ccc3cccnc3c21` had an IFI of 7.69%.

Regarding `O=C1N(c2ccccc2)C[C@@H]2C[C@@H](c3ccc4nonc4c3)N3CCC[C@@]123`, the IFI came out at 7.69%.

`CC(C)CC(NC(=O)/C(=C\c1ccco1)NC(=O)c1ccccc1)C(=O)OCc1ccccc1` (stereo unspecified) had an IFI of 0%.

In turn, `Cc1nc(N)sc1C(=O)NN=Cc1cccc(Br)c1` yielded an IFI of 0%.
